Laboratory results as given in the supplement of paper PMC12645437, “Orthogonal IMiD-Degron Pairs Induce Selective Protein Degradation in Cells” (ACS Chemical Biology, 2025).
The other results are listed elsewhere or left out.

B1: Q9UKT9 (peptide)
chain: FQCDVCGADFTQKGNLLRHIKL
B2: Q9UKT9 (peptide)
chain: FRCSVCGHKFTQKGNLLRHIKL
B3: Q9UKT9 (peptide)
chain: FDCPICGAVFTQKGNLLRHIKL
B4: Q9UKT9 (peptide)
chain: FHCPICGHVFTQKGNLLRHIKL
B5: Q9UKT9 (peptide)
chain: FRCPICGHRFTQKGNLLRHIKL
B6: Q9UKT9 (peptide)
chain: LRCPICGFECTQKGNLLRHIKL
B7: Q9UKT9 (peptide)
chain: FGCDICGAMFTQKGNLLRHIKL
B8: Q9UKT9 (peptide)
chain: FNCEQCGANFTQKGNLLRHIKL
B9: Q9UKT9 (peptide)
chain: FMCPICGHKFTQKGNLLRHIKL
B10: Q9UKT9 (peptide)
chain: FTCDVCGAMFTQKGNLLRHIKL
B11: Q9UKT9 (peptide)
chain: FFCDQCGAKFTQKGNLLRHIKL
B12: Q9UKT9 (peptide)
chain: FNCPICGAMFTQKGNLLRHIKL
B13: Q9UKT9 (peptide)
chain: FNCSVCGHMFTQKGNLLRHIKL
B14: Q9UKT9 (peptide)
chain: FTCNQCGAAFTQKGNLLRHIKL
B15: Q9UKT9 (peptide)
chain: FACEQCGAPFTQKGNLLRHIKL
B16: Q9UKT9 (peptide)
chain: FQCEICGHTFTQKGNLLRHIKL
B17: Q9UKT9 (peptide)
chain: FGCNVCGAFFTQKGNLLRHIKL
B18: Q9UKT9 (peptide)
chain: FGCEICGRIFTQKGNLLRHIKL
B19: Q9UKT9 (peptide)
chain: FCCDQCGAWFTQKGNLLRHIKL
B20: Q9UKT9 (peptide)
chain: FACEICGADFTQKGNLLRHIKL
B21: Q9UKT9 (peptide)
chain: FECEVCGAPFTQKGNLLRHIKL
B22: Q9UKT9 (peptide)
chain: FFCDVCGANFTQKGNLLRHIKL
B23: Q9UKT9 (peptide)
chain: LTCPICGFGCTQKGNLLRHIKL
B24: Q9UKT9 (peptide)
chain: FYCPICGHKFTQKGNLLRHIKL
B25: Q9UKT9 (peptide)
chain: LTCNQCGFYCTQKGNLLRHIKL
B26: Q9UKT9 (peptide)
chain: FTCDVCGAKFTQKGNLLRHIKL
B27: Q9UKT9 (peptide)
chain: FHCPICGHNFTQKGNLLRHIKL
B28: Q9UKT9 (peptide)
chain: FRCDICGAGFTQKGNLLRHIKL
B29: Q9UKT9 (peptide)
chain: FLCDICGAFFTQKGNLLRHIKL
B30: Q9UKT9 (peptide)
chain: FACNQCGAEFTQKGNLLRHIKL
B31: Q9UKT9 (peptide)
chain: LHCEICGFACTQKGNLLRHIKL
B32: Q9UKT9 (peptide)
chain: FNCNQCGRKFTQKGNLLRHIKL
B33: Q9UKT9 (peptide)
chain: FMCPQCGADFTQKGNLLRHIKL
B34: Q9UKT9 (peptide)
chain: FSCEICGHNFTQKGNLLRHIKL
B35: Q9UKT9 (peptide)
chain: FTCNQCGARFTQKGNLLRHIKL
B36: Q9UKT9 (peptide)
chain: FTCEICGRCFTQKGNLLRHIKL
B37: Q9UKT9 (peptide)
chain: LRCEICGFCCTQKGNLLRHIKL
B38: Q9UKT9 (peptide)
chain: LTCEICGFFCTQKGNLLRHIKL
B39: Q9UKT9 (peptide)
chain: FGCEQCGATFTQKGNLLRHIKL
B40: Q9UKT9 (peptide)
chain: FHCSVCGHGFTQKGNLLRHIKL
B41: Q9UKT9 (peptide)
chain: LTCEICGFKCTQKGNLLRHIKL
B42: Q9UKT9 (peptide)
chain: LECPICGFLCTQKGNLLRHIKL
B43: Q9UKT9 (peptide)
chain: LFCPICGFKCTQKGNLLRHIKL
B44: Q9UKT9 (peptide)
chain: LWCPICGFECTQKGNLLRHIKL
B45: Q9UKT9 (peptide)
chain: FACPICGAQFTQKGNLLRHIKL
B46: Q9UKT9 (peptide)
chain: FRCNQCGHSFTQKGNLLRHIKL
B47: Q9UKT9 (peptide)
chain: FWCPQCGAGFTQKGNLLRHIKL
B48: Q9UKT9 (peptide)
chain: FDCEICGRWFTQKGNLLRHIKL
B49: Q9UKT9 (peptide)
chain: FWCEICGAKFTQKGNLLRHIKL
B50: Q9UKT9 (peptide)
chain: FNCEICGRNFTQKGNLLRHIKL

Molecular target: no compound (DMSO)
Experiment: log2 fold change of degron read counts, EGFP-low vs EGFP+ sorted cells; higher = lower degron-EGFP level without compound (poor expression or instability)
Details: compound: DMSO control; 18 h
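Also: jurkat cells carrying a lentiviral library of mutant zinc finger degrons fused to EGFP plus mCherry, mCherry+ cells FACS sorted, degron abundance counted by next-generation sequencing.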

Sequence	log2 fold change of degron read counts
B1	-1.89
B2	-0.721
B3	0.00925
B4	-0.422
B5	-0.379
B6	-0.173
B7	-0.933
B8	-2.37
B9	0.415
B10	-1.48
B11	-1.77
B12	-0.0463
B13	-0.606
B14	-1.14
B15	-2.51
B16	-3.15
B17	0.665
B18	-0.075
B19	-0.788
B20	-1.95
B21	-1.42
B22	-0.69
B23	0.631
B24	-1.12
B25	1.44

Sequence	log2 fold change of degron read counts
B26	-1.46
B27	-0.275
B28	-1.34
B29	-0.573
B30	-1.03
B31	-0.201
B32	-0.0217
B33	-2.06
B34	-2.82
B35	-0.785
B36	-1.18
B37	0.0023
B38	1.37
B39	-1.5
B40	-0.401
B41	-1.19
B42	0.315
B43	0.553
B44	1.45
B45	-0.141
B46	-0.0851
B47	0.548
B48	0.747
B49	-0.848
B50	-0.761
